We go through 42 sequences from publication PMC7819943, “Rice protein-binding microarrays: a tool to detect cis-acting elements near promoter regions in rice”.

The list shows a part of the results.

In this assay the target is T1, OsWOX13 (Oryza sativa, UniProt Q5QMM3 1-267).
T1 sequence: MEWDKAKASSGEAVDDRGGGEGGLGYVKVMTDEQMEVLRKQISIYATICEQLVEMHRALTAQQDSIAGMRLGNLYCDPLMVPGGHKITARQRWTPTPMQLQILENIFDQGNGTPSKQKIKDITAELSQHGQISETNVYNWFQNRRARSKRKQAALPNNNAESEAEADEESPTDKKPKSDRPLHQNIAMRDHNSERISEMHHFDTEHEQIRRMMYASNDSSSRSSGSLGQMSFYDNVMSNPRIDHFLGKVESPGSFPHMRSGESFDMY
Kind of assay: protein-binding microarray (RPBM); PBS, 2% BSA, 51.3 ng/ul salmon testes DNA, 50 uM zinc acetate, 200 nM TF, 25 C, 1 h; high values mean tight binding. As to conditions: protein: recombinant; tags: N-terminal polyhistidine and DsRed monomer fusion (pET32a); label: CyDye5-dUTP incorporated in the synthesized complementary strand; 3' TTTTT single-stranded linker to array surface; dsDNA, one strand shown. A digest of the protocol: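 The binding signal for each feature is its fluorescence intensity in arbitrary units. An Axon 4000B scanner was used to read a custom Agilent array that had been made double-stranded with Cy5-dUTP primer extension, blocked with 2% BSA, incubated at 25 °C for 1 h with 200 nM protein in PBS, 2% BSA, salmon testes DNA and 50 µM zinc acetate, and washed. The protein was an N-terminal polyhistidine–DsRed transcription factor fusion from E. coli BL21-CodonPlus, purified on Ni–NTA.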
Consider “CTGTTACTGTTGATTTAGCGCGTTTTGCCTGTATAAATTTCGGAGTCACCTAGTGCAG”, for which the binding signal is 5630 fluorescence intensity (a.u.). The figure for “AGATGATAGGTATCTTTGTGCTGTTATCAGCTGGAAGTTCCGGAGTCACCTAGTGCAG” is 7000 fluorescence intensity (a.u.); for “CCTGTTGTTTAATTATTGTTATGGATAAACAAATGGGCTGCGGAGTCACCTAGTGCAG” it is 5570 fluorescence intensity (a.u.); for “TAGAAGATAGATTGATTGATTGATATATACTATCTCTATACGGAGTCACCTAGTGCAG” it is 52600 fluorescence intensity (a.u.). The figure for “AATAAATTAAGTTCAGTTGTCAATTGAAAACAACAAAATTCGGAGTCACCTAGTGCAG” is 5330 fluorescence intensity (a.u.); for “CAATTAATTAAGTACGTGGACGTACTGTCTTAATTGAACGCGGAGTCACCTAGTGCAG” it is 20800 fluorescence intensity (a.u.); for “ATGAATTGATTCACTCGCGAGATGACGTGGATGTTTCACCCGGAGTCACCTAGTGCAG” it is 19800 fluorescence intensity (a.u.).

Turning to “TTTAAATAGATGAATAGTAATAGTATATTTCCAAACTGTGCGGAGTCACCTAGTGCAG”, the binding signal is 22900 fluorescence intensity (a.u.). In the case of “ACTCCGGTTCTCAATCAACTCCAAGTTAGTACATTCCAACCGGAGTCACCTAGTGCAG”, the binding signal was 10300 fluorescence intensity (a.u.).

Regarding “CAAGGAGTCCAATTGATTTACAGGGTTTTATCTTTCCCCTCGGAGTCACCTAGTGCAG”, the binding signal is 3400 fluorescence intensity (a.u.).

Take “ATATGATTAAACTCAAGTATAGTTGAGGGACGTAAATTGGCGGAGTCACCTAGTGCAG”: the binding signal is 19700 fluorescence intensity (a.u.). Consider “GATAATAGATAATAGATAGATTGAAGATTAGGAAAGGGAACGGAGTCACCTAGTGCAG”, for which the binding signal was 54800 fluorescence intensity (a.u.).

Turning to “AATTAATCATGCGTTAATGGACCGTTCCGTTTTCCGTGTTCGGAGTCACCTAGTGCAG”, the binding signal was 20900 fluorescence intensity (a.u.). Turning to “ATGCTCACCTTGCAATAATCAATCAACCTAAGTTGAAGAACGGAGTCACCTAGTGCAG”, the binding signal is 5160 fluorescence intensity (a.u.). The result for “AACTAATCCATGATTAGCCATAAATGCTACAGTAACCCACCGGAGTCACCTAGTGCAG” reads 10800 fluorescence intensity (a.u.); that for “GTAATCTAAAGACGTTTGGATTGATGAATGAAACAAATGTCGGAGTCACCTAGTGCAG”, 5790 fluorescence intensity (a.u.). Regarding “GGTGAAATCAATCCCCATGTCCCCACCCTCTGTGTAGCGGCGGAGTCACCTAGTGCAG”, the binding signal was 3210 fluorescence intensity (a.u.).

For “GATACAATCTGTTAGACGTGACAGTCATCTCTAATGGACACGGAGTCACCTAGTGCAG”, the binding signal is 8880 fluorescence intensity (a.u.). As to “AATTAATTGAACAGGCTGTTGGGCAGTGGCCTTCGGGAGACGGAGTCACCTAGTGCAG”, the binding signal is 44200 fluorescence intensity (a.u.). The figure for “ATGAGTATTAATTATTTTAAATTTCAAAATGAACTAATATCGGAGTCACCTAGTGCAG” is 9270 fluorescence intensity (a.u.); for “GGGGAACACATTAGTTGTCAATCATCTCATCAGGTGGAGCCGGAGTCACCTAGTGCAG” it is 17100 fluorescence intensity (a.u.). The result for “GAACGGTCCATTAGCGCGTGATTAATTAAGTATTAGCTAACGGAGTCACCTAGTGCAG” reads 17300 fluorescence intensity (a.u.). On to “ATCTTTAATAGATAGGGATTATCACTGGATAGGCCCGATTCGGAGTCACCTAGTGCAG”, for which the binding signal was 17800 fluorescence intensity (a.u.). The figure for “CAATCAATCTTCTTCATTCTGGCAGGTTATATATACAATCCGGAGTCACCTAGTGCAG” is 6640 fluorescence intensity (a.u.); for “TTTAATTATAACAAATTCAACGATATAATTAGTTTGAAATCGGAGTCACCTAGTGCAG” it is 19200 fluorescence intensity (a.u.). Consider “GCGTATGATTTGCTGAAATGATAACGGATAAGTTTTAGATCGGAGTCACCTAGTGCAG”, for which the binding signal is 19400 fluorescence intensity (a.u.). The result for “GCCATGATGATTTTGACGTCAAAGCCATCGAGTTAATTAGCGGAGTCACCTAGTGCAG” reads 14900 fluorescence intensity (a.u.); that for “GACTCTAATTTAGTGATTGCTTCATGCCACGAATTATATTCGGAGTCACCTAGTGCAG”, 13300 fluorescence intensity (a.u.). The figure for “GTATTAATTTCTGACAAGTACATGCGGCCTGGTGATATAACGGAGTCACCTAGTGCAG” is 6390 fluorescence intensity (a.u.); for “TTTTGATAACTCCATTGACACAATTAAGCTAGGGGAAATTCGGAGTCACCTAGTGCAG” it is 5600 fluorescence intensity (a.u.). The figure for “ACAATACTATAATTGGTATCAAAACTTAGCTAGTTCAGCACGGAGTCACCTAGTGCAG” is 8940 fluorescence intensity (a.u.). For “GAATCAAATTACACTGATATTAACGTTTAAGAGTCAAGATCGGAGTCACCTAGTGCAG”, the binding signal was 4690 fluorescence intensity (a.u.).

For “ACACATCTCATCAATTTATCGTCATCATCGCAAACTTAACCGGAGTCACCTAGTGCAG”, the binding signal is 9520 fluorescence intensity (a.u.). Regarding “GTCCGTGCCCTAATTGTGTTATCTTCTGTAACTGATAGCACGGAGTCACCTAGTGCAG”, the binding signal is 5230 fluorescence intensity (a.u.).

Take “TCGGGTGACTGGTTTTGTATAGTTAAGGGACCCTGCATATCGGAGTCACCTAGTGCAG”: the binding signal was 3630 fluorescence intensity (a.u.).

Regarding “ACCCCAATCATCAGGCCAGAGACTGGCTCAACAAGATAGCCGGAGTCACCTAGTGCAG”, the binding signal was 10100 fluorescence intensity (a.u.). The figure for “TTGATGGAAATGATTGAAGAAATATTGCGATTTATCGAGACGGAGTCACCTAGTGCAG” is 26200 fluorescence intensity (a.u.). “ACTCATTTACTGTTTGATGAAATCTGTCATAGTTTCATGACGGAGTCACCTAGTGCAG”: the binding signal is 5200 fluorescence intensity (a.u.).

Take “GGTGACAACGAGGGCTAATTGAAGCCTGTCACTGTACGCGCGGAGTCACCTAGTGCAG”: the binding signal is 20600 fluorescence intensity (a.u.).

Take “TTATACCTGATTGCAGTATGATTTGCCTCCCTTCTGTCGACGGAGTCACCTAGTGCAG”: the binding signal was 31900 fluorescence intensity (a.u.). The result for “CATAATTTGTGCTAAGTGCTAACAGTCTTCATTTGTTTTCCGGAGTCACCTAGTGCAG” reads 21000 fluorescence intensity (a.u.); that for “AATTCAAAATTTAACTATGACAGATGAGAATACAAATCATCGGAGTCACCTAGTGCAG”, 6580 fluorescence intensity (a.u.).
